“And” between values parts separate entries of the source, which are not always exact repeats. Identical values can stand only once. Counter-ions that a name gives are not always drawn. Out of some 1,800 compounds screened, about 50 (3%) showed activity. Some of the results follow.
tested on: mouse p16Ink4a+/- lung fibroblasts (INKBRITE, bleomycin-injured); assay: percentage of GFP+ (p16Ink4a+) fibroblasts among all cells in well; higher = less depletion of p16Ink4a+ cells, active = 20 or less; conditions: 1 µM; 3 days
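Further: fibroblasts sorted 14 days after bleomycin, GFP+ and GFP− mixed 1:1 in 384-well plates (GFP− as in-well control), imaged after Hoechst and NucView530 staining, reference wells lacked compound.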

| SMILES | percentage of GFP+ |
| --- | --- |
| O=C(Nc1ccccc1)Nc1ccc(-c2ccc(C(=O)[C@@H]3CCC[C@H]3C(=O)O)cc2)cc1 | inactive: 45.8% |
| Cc1cccc(C)c1NC(=O)C1CCCCN1C (configuration not stated) [Mepivacaine] | inactive: 44.4% |
| COc1ccc(-c2cc(=O)c3c(OC)c(OC)c(OC)c(OC)c3o2)cc1 [Tangeretin] | inactive: 48.6% |
| CN(C)Cc1ccc(S(=O)(=O)n2ccc(/C=C/C(=O)NO)c2)cc1 [Resminostat] | inactive: 37.1% |
| Cc1cccc(Nc2nc(-c3ccncc3)cs2)c1 | inactive: 42.4% |
| O[C@@H](COc1cccc2ncccc12)CN1CCN([C@@H]2c3ccccc3[C@@H]3[C@H](c4ccccc42)C3(F)F)CC1 [Zosuquidar 3HCl] | inactive: 50.4% |
| Cc1c(N)nc([C@H](CC(N)=O)NC[C@@H](N)C(N)=O)nc1C(=O)N[C@H](C(=O)N[C@@H](C)[C@H](O)[C@@H](C)C(=O)N[C@@H](C(=O)NCCc1nc(-c2nc(C(=O)NCCC[SH](C)C)cs2)cs1)[C@@H](C)O)C(O[C@H]1O[C@H](CO)[C@H](O)[C@@H](O)[C@H]1O[C@H]1O[C@H](CO)[C@@H](O)[C@H](OC(N)=O)[C@@H]1O)c1c[nH]cn1 (some centres not stated) [Bleomycin] | inactive: 36.1% |
| NC(CO)(CO)CO | inactive: 52.3% |
| CCC(=O)N1CCN(c2ccc(-n3c(=O)ccc4cnc5ccc(-c6cnc7ccccc7c6)cc5c43)cc2C(F)(F)F)CC1 [Torin 1] | inactive: 46% |
| CS(=O)(=O)c1ccc([C@@H](O)[C@@H](CO)NC(=O)C(Cl)Cl)cc1 [Thiamphenicol] | inactive: 49.4% |
| Cn1cnc2c1c(=O)[nH]c(=O)n2C [Theobromine] | inactive: 38.9% |
| CCN[C@H]1CN(CCCOC)S(=O)(=O)c2sc(S(N)(=O)=O)cc21 [Brinzolamide] | inactive: 44.8% |
| O=C(O)CCCc1c[nH]c2ccccc12 [3-Indolebutyric Acid] | inactive: 48.2% |
| O=C(Cc1ccc(-c2ccc(OCCN3CCOCC3)cc2)cn1)NCc1ccccc1 | inactive: 30.9% |
| CC1CCN(CC[C@H]2CCCN2S(=O)(=O)c2cccc(O)c2)CC1 | inactive: 56.6% |
| O=S(=O)(O)CCS [Mesna] | inactive: 35.4% |
| O=C(O)/C=C/c1ccc(Cn2ccnc2)cc1 [Ozagrel HCl] | inactive: 41.7% and inactive: 44.8% |
| Cc1ccc(NC(=O)c2ccc(CN3CCN(C)CC3)cc2)cc1Nc1nc(-c2cccnc2)cs1 [Masitinib] | inactive: 30.8% |
| Cn1cc(-c2ccc3ncc(Cc4ccc5ncccc5c4)n3n2)cn1 | inactive: 41.3% |

| SMILES | percentage of GFP+ |
| --- | --- |
| O=C(O)CCCN1CCC(O[C@@H](c2ccc(Cl)cc2)c2ccccn2)CC1 [Bepotastine Besilate] | inactive: 54.5% |
| Nc1nc(N)nc(-c2cc(Cl)ccc2Cl)n1 [Irsogladine Maleate] | inactive: 37% |
| Cc1cccc(CC(=O)N2CCc3c2ccc(-c2cn(C)c4ncnc(N)c24)c3F)n1 | inactive: 45% |
| Cc1noc(-c2ccc(CSCCC(=O)O)cc2)c1NC(=O)OC(C)c1ccccc1Cl (configuration not stated) | inactive: 37.1% |
| NC(=O)c1cccc(-c2cc(Nc3ccc(OC(F)(F)F)cc3)ncn2)c1 | inactive: 46.4% |
| CCCCC[C@H](O)/C=C/[C@H]1[C@H](O)CC(=O)[C@@H]1CCCCCCC(=O)O [Alprostadil] | inactive: 22.6% |
| CC(C)NCC(O)COc1ccc(COCCOC(C)C)cc1 (configuration not stated) [Bisoprolol] | inactive: 40.5% |
| O=C(c1ccc(F)cc1)N1CCC[C@H](c2nc(-c3ccc(F)cc3)no2)C1 | inactive: 36.6% |
| N=C(N)N/N=C/c1c(Cl)cccc1Cl [Guanabenz] | inactive: 49.3% |
| [O]=[Mg] [Magnesium oxide] | inactive: 47.1% |
| Cc1c(OCC(F)(F)F)ccnc1C[S@@](=O)c1nc2ccccc2[nH]1 [Dexlansoprazole] | inactive: 52% |
| C[C@@]12C[C@@]3(O)O[C@@H](O1)[C@]1(COC(=O)c4ccccc4)[C@H]3C[C@@]12O[C@@H]1O[C@H](CO)[C@@H](O)[C@H](O)[C@H]1O [Paeoniflorin] | inactive: 43% |
| CC1COC2(CCN(c3nc(=O)c4cc(C(F)(F)F)cc([N+](=O)[O-])c4s3)CC2)O1 (racemic) [BTZ043 Racemate] | inactive: 29.3% |
| CCC[C@@H]1C[C@@H](C(=O)N[C@@H]([C@H]2O[C@H](SC)[C@H](O)[C@@H](O)[C@@H]2O)[C@@H](C)O)N(C)C1 [Lincomycin HCl] | inactive: 43.1% |
| Nc1ncn([C@@H]2O[C@H](CO)[C@@H](O)[C@H]2O)c(=O)n1 [5-azacytidine, Azacitidine] | inactive: 37.9% |
| CC1(C)[C@H](C(=O)O)N2C(=O)C[C@H]2S1(=O)=O [Sulbactam] | inactive: 45.5% and inactive: 41.4% |
| Cc1c(-c2ccccc2)oc2c(C(=O)OCCN3CCCCC3)cccc2c1=O [Flavoxate] | inactive: 43% |
| Cn1cc(/C=C/C(=O)c2cccc(F)c2)cc1/C=C/C(=O)NO | inactive: 54% |
